Assay results as given in PubChem BioAssay AID504832 (National Center for Advancing Translational Sciences (NCATS), 2011).
Among all 310,000 compounds or so, about 18,000 (5.8%) were called active. Inconclusive means that the source gave no clear call. Such entries were picked first, then a sample of the others. Calls come from the whole dose curve; as a rule, active = well fitted inhibition curve with a large enough effect; inconclusive = small, poorly fitted or top-dose-only effect, or another doubt; inactive = no such curve, though single readings can be large or run the other way. No potency is given beside an inconclusive call; the fits are too rough.

Assay: Primary qHTS for delayed death inhibitors of the malarial parasite plastid, 48 hour incubation
Settings: P. falciparum luciferase growth in erythrocytes; series mostly up to 28.7 µM
Procedure, shortened: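 Cell-based growth assay: transgenic P. falciparum expressing firefly luciferase, cultured in red cells within RPMI 1640 containing 0.5% w/v Albumax, 24 mM bicarbonate and gentamycin. A drop in luciferase activity indicates inhibition.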
Potency is the fitted concentration of half-maximal effect; tags give direction and shape of the fitted curve.

Compound	Potency
CCOC(=O)C1=C(C)NC(=S)NC1c1ccc(OCC(=O)N2CCCCCC2)cc1 (centres undefined)	inconclusive [inhibitor, single point]
CC(NC(=O)c1ccccc1)C(=O)OCn1nnc2ccccc2c1=O (centres undefined)	inactive
COCCN1C(=O)C(=O)/C(=C(/O)c2ccc(S(=O)(=O)N3CCCCC3)cc2)C1c1ccc(OC)c(OC)c1 (centres undefined)	inconclusive [inhibitor, single point]
C/C(=N/NS(=O)(=O)c1ccc(C)cc1)c1c(O)c2ccccc2oc1=O	inactive
COc1ccc(OC)c(CNC(=O)CCSCc2ccc(F)cc2Cl)c1	inactive
CCc1nnc(NC(=O)CSc2nc(N)c(NC(=O)c3ccc(OC)cc3)c(=O)[nH]2)s1	inactive
COc1cc(OC)cc(-c2c(-c3cccs3)c3cc(-c4ccc(OC)nc4)ccc3n2C)c1	inconclusive [inhibitor, single point]
COc1cc(C(=O)O)c2ccccc2n1	inactive
O=S(=O)(Oc1ccccc1C(=S)N1CCOCC1)c1ccc(Cl)cc1	inconclusive [inhibitor, partial curve, poor fit]
O=[n+]1c2c(n([O-])c3cc(F)c(F)cc31)CCCC2	inconclusive [inhibitor, partial curve, poor fit]
Cc1cc(OCC(=O)NC(Cc2ccc(Cl)cc2)C(=O)O)c2c(C)c(C)c(=O)oc2c1 (centres undefined)	inactive
Cc1cc(Cl)ccc1OCC(=O)NNC(=O)C1CCN(c2ncnc3sc(C)c(C)c23)CC1	inactive
CCOC(=O)C1CCCN(S(=O)(=O)c2cc3[nH]c(=O)c(=O)[nH]c3cc2C)C1 (centres undefined)	inconclusive [inhibitor, partial curve, poor fit]
Cc1ccccc1-n1c(-c2ccc(Cl)cc2)cnc1SCC(=O)NC1CCS(=O)(=O)C1 (centres undefined)	inconclusive [inhibitor, full curve]
CCCSS/C(CCO)=C(/C)N(C=O)Cc1cnc(C)nc1N	inconclusive [inhibitor, partial curve, poor fit]
COc1ccc(N(CC(=O)NC2CCCC2)C(=O)c2ccc(N3CCCCC3)nc2)cc1	active: 9.28 µM
CN(c1ccccc1)S(=O)(=O)c1cccc(C(=O)NCc2ccccc2CN2CCCC2)c1	inconclusive [inhibitor, partial curve, poor fit]
COc1ccc(CCNC(=O)c2ccc3c(c2)N(Cc2ccc(F)cc2)CCS3)c(OC)c1	inconclusive [inhibitor, single point]
COc1ccc2c3n([n+]([O-])c2c1)CCN=C3c1ccc(C)cc1	inconclusive [inhibitor, partial curve, poor fit]
